Reference: PubChem BioAssay AID1362 (SRMLSC, 2008)
The other results are listed elsewhere or left out. The main result of the screen is listed elsewhere. These columns were measured beside it and carry no call. The list favours compounds with an active or inconclusive main result.

Experiment: growth inhibition of WT strain, primary screen, mitochondrial fusion inhibitor project, WT and mutant strains, chemical genetic (AID 1362); also: tested in S. cerevisiae
Settings: mitochondrial fusion phenotypic screen, at 10 µM

| SMILES | inhibition [%] |
| --- | --- |
| Fc1ccc(CCNC(=S)Nc2ccc(F)c(Cl)c2)cc1 | 75.4 |
| Cc1cc(N/N=C/c2ccc(O)c(C)c2O)nc(-c2ccccc2O)n1 | 23.3 |
| Cc1ccc(C(=O)CC(=O)c2cccc(F)c2)c(O)c1 | 51.6 |
| OC(CNCc1ccc(-c2ccccc2)cc1)c1ccccc1 (stereo not drawn) | 58.1 |
| O=[N+]([O-])c1cc(C(F)(F)F)ccc1NCCc1c[nH]c2ccc(O)cc12 | 43.2 |
| CCCCCc1ccc(C(=O)CCCC)c(=S)[nH]1 | 63.1 |
| COC(=O)CP(=O)(c1ccccc1)c1ccccc1 | -3.61 |
| CCN(Cc1cc2ccc(C)cc2[nH]c1=O)C(=O)c1ccncc1 | 3.98 |
| CN(C)CCCN(C(=O)CCc1ccccc1)c1nc2c(F)cccc2s1 | 50.6 |
| COc1ccc(N/C(N)=N/c2nc(CSc3ccc(C)cc3)cc(=O)[nH]2)cc1 | 10.5 |
| COc1ccc(NC(=S)Nc2ccc(OCc3ccccc3)cc2)c(OC)c1 | -6.01 |
| Cc1cccc(N2CCN(C(=O)C(Cc3ccccc3)n3cccc3)CC2)c1C (stereo not drawn) | 23.4 |
| Cc1cc(Oc2cnn(C(C)(C)C)c(=O)c2Cl)cc(C(C)C)c1 | 10.7 |
| Cc1ccc(CSCc2nc3ccccc3[nH]2)cc1 | 66.8 |
| Cc1ccc(C(=C2C3C=CC2C2C(=O)NC(=O)C32)c2ccc(C)cc2)cc1 (stereo not drawn) | 53 |
| Cc1ccc(S(=O)(=O)N(CCCO)CC(O)CON=C2c3ccccc3-c3ccccc32)cc1 (stereo not drawn) | 10.9 |
| CCCCCn1c(N2CCC(Cc3ccccc3)CC2)nc2c1c(=O)[nH]c(=O)n2C | 37.2 |
| C=CCNC(=S)NNC(=O)COc1ccc2cc(Br)ccc2c1 | 13.9 |
| COc1cc(/C=C/c2ccc(O)cc2)cc(OC)c1 | 46.8 |
| Cc1ccc(C(=O)Nc2ccccc2Oc2ccccc2)cc1[N+](=O)[O-] | 26.1 |
| O=C(Nc1ccccc1Oc1ccccc1)c1cc([N+](=O)[O-])ccc1Cl | 18.6 |
| Oc1ccc(N=Nc2nc(-c3ccccc3)c(-c3ccccc3)[nH]2)cc1 | 80 |
| C/C(CCC12CC3CC(CC(C3)C1)C2)=N\NC(N)=S | 77 |

| SMILES | inhibition [%] |
| --- | --- |
| Cc1ccc(-c2cc(C(F)F)n3ncc(C(=O)N4CCN5CCCC5C4)c3n2)cc1 (stereo not drawn) | -5.39 |
| c1csc(CNc2nc(-c3cccs3)nc3ccccc23)c1 | 63.8 |
| CCOC(=O)CN(C)C(=O)CCc1nnc(-c2ccsc2)o1 | 42.2 |
| COc1ccc(-c2csc3nc(-c4cccnc4)nc(Cl)c23)cc1OC | 25.4 |
| Cc1ccc(-c2[nH]c3ccccc3c2C(C[N+](=O)[O-])c2ccco2)cc1 (stereo not drawn) | 49.1 |
| N/C(=N\OC(=O)c1cc(-c2ccccc2)nc2ccccc12)c1ccccn1 | 43.5 |
| Clc1ccc(-c2n[nH]c3c2CCCC3)cc1 | 61.1 |
| COc1ccc2cc3c(N)nn(C(=O)C4CCC(C(C)(C)C)CC4)c3nc2c1 (stereo not drawn) | 74.1 |
| CCCCCOc1ccc2oc(=O)c3c(c2c1)CCCN3C(=O)CN1CCCC(C(=O)OCC)C1 (stereo not drawn) | 7.03 |
| CCCCCCCOC(=O)C[N+](C)(C)CCOC1CC2CCC1(C)C2(C)C (stereo not drawn) | 38 |
| Cc1cc(C)c2nc(C(F)(F)F)nc(N3CC(C)OC(C)C3)c2c1 (stereo not drawn) | 19.9 |
| Cc1ccc(NC2=CC(=O)C(=O)c3ccccc32)cc1 | 57.2 |
| O=C(CSCc1cccc(Cl)c1)Nc1ccccc1-c1ccccc1 | -4.28 |
| CC(C)c1ccc(NC(=O)c2sccc2-n2cccc2)cc1 | -9.03 |
| CC1CCc2nc(NC(=O)CN3CCN(c4ccc(F)cc4)CC3)sc2C1 (stereo not drawn) | 6.64 |
| CC(C)C1OC(c2cccc(NC(=O)c3cccs3)c2)OCC1(C)C (stereo not drawn) | 4.59 |
| O=C(COc1ccccc1)Nc1ccccc1Oc1ccccc1 | 23.9 |
| COC(=O)Cn1ccc(N(C)C)c(C#N)c1=O | 9.1 |
| O=C(CC(Nc1ccc(F)cc1)c1ccccc1)c1ccccc1 (stereo not drawn) | 17.6 |
| Clc1ccc(/C=N/N2CCN(Cc3ccccc3Cl)CC2)cc1 | 65.8 |
| N/C(Cc1ccc(Cl)cc1Cl)=N\OC(=O)c1ccccc1F | 84 |
| O=C(Nc1nc(=S)ss1)c1c(F)cccc1F | 15.6 |
| N#CC1=C(N)NC(SCC(=O)c2ccc(Br)cc2)=C(C#N)C12CCCCC2 | -7.27 |

| SMILES | inhibition [%] |
| --- | --- |
| CCOC(=O)N1CCN(S(=O)(=O)c2ccc(C)cc2)C1c1ccc(OC)cc1 (stereo not drawn) | 21 |
| CCCCNC(=S)N1CCn2cccc2C1c1ccc(F)cc1 (stereo not drawn) | 27.9 |
| O=C(/C=C/Nc1cccc(C(F)(F)F)c1)C(F)(F)F | -2.43 |
| Cc1cc(Nc2ccccc2)nn1C(=O)c1ccc(Cl)cc1 | 52.5 |
| CCOC(=O)c1c(C)oc2c1c(C(c1cccnc1)N1CCOCC1)c(O)c1ccccc12 (stereo not drawn) | 28.1 |
| CC(C)(C)N=C1NN=C(c2cc3ccccc3o2)CS1 | 8.08 |
| O=C(NCc1ccccc1)c1ccc(C(=O)N(C2CCCCC2)C2CCCCC2)cc1 | 5.6 |
| C/C(=N\NC(=S)NCc1ccccc1)c1ccc2ccccc2c1 | 56.5 |
| CCN(CC)c1nc(-c2ccccc2)ncc1S(=O)(=O)c1ccc(C)cc1 | 10.1 |
| Cn1c(N/N=C/c2cc3ccccc3nc2Cl)nc2ccccc21 | 62.3 |
| Cc1ccc(C)c(N2CCN(C(=O)C3CCCCN3S(=O)(=O)c3ccc(F)cc3)CC2)c1 (stereo not drawn) | 14 |
| CCC(C)n1cnc2c(c1=O)c1nc3ccccc3nc1n2Cc1ccc(OC)cc1 (stereo not drawn) | 52.7 |
| Cc1cc(N2C(=O)C=CC2=O)c([N+](=O)[O-])cc1C | 3 |
| CC(NS(=O)(=O)c1ccc(Br)cc1)C(N)=O (stereo not drawn) | 19.5 |
| Cc1ccccc1OCCCCc1c(C)n[nH]c1C | 70.8 |
| CCn1c(Sc2nc(C)nc3scc(-c4cccs4)c23)n[nH]c1=O | 69.9 |
| O=C(c1ccc(-c2nnc(-c3ccccc3)o2)cc1)N1CCCCCC1 | 1.08 |
| OC(COCc1ccc(Cl)cc1)CN1CCN(CC(O)COCc2ccc(Cl)cc2)CC1 (stereo not drawn) | 56.6 |
| CCCC(c1nnnn1CC1CCCO1)N1CCN(c2cc(Cl)ccc2C)CC1 (stereo not drawn) | 45.2 |
| Cc1cc(C(=O)Nn2c(C3CCCCC3)nc3ccccc3c2=O)ccc1[N+](=O)[O-] | 24.2 |
| CSc1nc(Sc2ccccc2Cl)c2ccccc2n1 | 18.2 |
| CCCn1c2c(c(O)c(C(=O)Nc3nccs3)c1=O)CCCC2 | 18.5 |
| COc1ccc(NC(=O)COC(=O)c2c3c(nc4ccccc24)CCCC3)cc1Cl | 42.1 |

| SMILES | inhibition [%] |
| --- | --- |
| CN(C)S(=O)(=O)c1cccc(C(=O)NCC2CCCO2)c1 (stereo not drawn) | -2.97 |
| Cc1ccc(-c2nnc(SCC(=O)N3CCOCC3)nc2-c2ccc(C)cc2)cc1 | 3.54 |
| c1ccc2c(CSc3ncnc4nc[nH]c34)cccc2c1 | 55.1 |
| COc1ccccc1-c1ccc(SCc2cccc(C)c2)nn1 | 22.3 |
| CCOC(=O)c1c(C)[nH]c(N=Nc2ccccc2)c1C | 63.3 |
| CN1CC(c2ccccc2)C2(SC(=S)N(Cc3ccco3)C2=O)C12C(=O)Nc1ccccc12 (stereo not drawn) | 27.9 |
| COCCN(C(=O)Cc1cccs1)C(C(=O)NCc1ccc(OC)cc1)c1ccccc1 (stereo not drawn) | 98.7 |
| Clc1ccc2nc(-c3ccccn3)c(Nc3ccc4c(c3)OCO4)n2c1 | 61.9 |
| Cc1ccc(N=Nc2ccc(O)c3ncccc23)cc1 | 61.7 |
| CCCC1(CCC)NC(=O)N(CC(=O)Nc2cccc(OC)c2)C1=O | -3.05 |
| O=c1cc(N2CCCCC2)c(-c2ccccc2)nn1Cc1ccccc1 | 3.64 |
| OC(CNCc1ccc(Cl)cc1)(c1ccccc1)c1ccc(F)cc1 (stereo not drawn) | 19.9 |
| CC(=O)c1c(C)[nH]c(C(=O)Nc2nc(-c3ccc(Cl)cc3)cs2)c1C | 58.6 |
| O=C(c1ccc(NC(=S)Nc2ccc(Cl)c(Cl)c2)cc1)N1CCCC1 | 73 |
| O=C(Nc1ccccc1N1CCCCC1)c1cccc([N+](=O)[O-])c1 | 40.5 |
| O=c1c2ccccc2n(Cc2ccc(F)cc2)c(=O)n1C1CCCC1 | 21.1 |
| Cc1cc(Nc2nc3ccccc3nc2Cl)n(-c2ccccc2C)n1 | 59.9 |
| O=C(COC(=O)Cc1ccc(Br)cc1)NC12CC3CC(CC(C3)C1)C2 | 43.2 |
| CCOC(=O)c1c(OCC)[nH]c2c1cc(O)c1ccccc12 | 44.4 |
| NC(=O)NCCC1=CCCCC1 | -3.03 |
| Cc1cc(C)nc(NC(=O)c2ccc(COc3ccccc3Cl)cc2)c1 | 28.3 |
| COc1ccccc1CN=Cc1[nH]c2ccc(Br)c(Cl)c2c1O | 8.52 |
| Cc1ccn2c(Nc3ccccc3C)c(-c3ccccn3)nc2c1 | 49.1 |

| SMILES | inhibition [%] |
| --- | --- |
| CCC(=O)N1CCN(c2ccc(NC(=O)c3ccc([N+](=O)[O-])o3)cc2Cl)CC1 | 59.8 |
| O=C(COC(=O)C12CC3CC(CC(C3)C1)C2)NC12CC3CC(CC(C3)C1)C2 | 47.3 |
| C=CCNC(=S)N(CC)c1cccc2ccccc12 | 48.4 |
| CCCC1CCC(c2ccc(C(=O)NN)cc2)CC1 (stereo not drawn) | 83.1 |
| O=C(c1ccc(CSc2ccccc2)cc1)N1CCN(c2ccccc2)CC1 | 47.5 |
| Cc1ccc(NNC(=O)C(=O)N2CCCCC2)cc1 | 58.3 |
| S=C(NCCc1ccccc1)NN=C1CCCCCC1 | 54.8 |
| Cc1ccc(/C=C/c2ccc(=O)n(Cc3ccccc3Cl)n2)cc1 | 36.5 |
| CC/C(C)=N/Nc1cccc([N+](=O)[O-])c1 | 53.3 |
| NNc1nc2c(Cl)c(Cl)ccc2s1 | 72 |
| CCc1ccc(NC(=S)NCc2ccccc2)cc1 | 35.1 |
| Cc1ccc(S(=O)(=O)Nc2ccc3oc(=O)sc3c2)c(C)c1 | 26.1 |
| CCCCOC(=O)CSc1nnc(-c2ccc(Cl)cc2Cl)o1 | 53 |
| Clc1nc(-c2cccnc2)nc2scc(-c3ccccc3)c12 | 61.8 |
| C=C(C)COc1ccc(-c2[nH]ncc2-c2ccccc2)c(O)c1 | 22.7 |
| Cc1csc(NC(=O)c2cccn2C)n1 | 15.6 |
| O=C(Nc1ccccc1Cl)c1ccccc1Oc1ccc(C(F)(F)F)cc1[N+](=O)[O-] | 15.1 |
| O=C(C1=C[C@H](C2CCCCC2)C[C@H](OCc2ccc(CO)cc2)O1)N1CCN(Cc2ccccc2)CC1 | 33.3 |
| COc1cccc(-c2nc(=S)c3c(o2)CCCC3)c1 | 47.3 |
| CCN1/C(=C/c2cc[n+](C)cc2)C=Cc2cc(C)ccc21 | 47.7 |
| Cc1ccccc1-c1noc(C23CC4CC(CC(C4)C2)C3)n1 | 76.1 |
